B1: LINE1-full (parent)
chain: UACGUAGGUGGUUUUCCCCUGAUAGUGCUAAGGGGGCCUGGAAGUUUGGACUGGGCAGAGCUCAACACAGCGUGGCAAAGUGGCUGUGGCUAGACUGCCUCUCUGGAUUCCUCGUCACUCAGCAGGGCAUCUCUGAGAGAAAUGCC

The source gives no read counts; variants with many changes may rest on few reads.

The variants in the data set derive from B1. As to the kind of experiment: self-cleavage, relative activity (ratio to wild type); higher = more cleavage; in vitro, sequencing; the parent is a self-cleaving ribozyme.
As for UACGUAGGUGGUUUUCCCCUGAUAGUGCUAAGGGGGCCUGGAUGUUUGGACUGGGCAGAGCUCAACACAGCGUGGCGAAGUGGCUGUGGCUAGACUGCCUCUCUGGAUUCCUCGUCACUCAGCAGGGCACCUCUGAGGGAAAUGCC [A43U A77G U130C A138G], the self-cleavage worked out at 1.62.

In the case of UACGUAGGUGGUUUUCCCCUGAUAGUGCUAAGGGGGCCUGGAUGUUUGGACUGGGCAGAGCUCAGCACAGCGUGGCCAAGUGGCUGUGGCUAGACUGCCUCUCUGGAUUCCUCGUCUCUCUGCAGGGCAUCUCUGAGAGAAAUGCC [A43U A65G A77C A117U A121U], the self-cleavage was determined as 0.

Consider UACGUAGGUGGUUUUCCCCUGAUAGUGCUAAGGGGGCCUGGAAAUUAGGACUGGGCAGGGCUCAACACAGCGUGGCAAAGUGGCUGUGGCUAGACUGCCUCUCUGGAUUCCUCGUCACUCAGCAGGGCAUCUCCGAGAGAAAUGCC [G44A U47A A59G U134C], for which the self-cleavage came to 0.06.

On to UACGUAGGUGGUUUUCCCCUGAUAGUGCUAAGGGGGCCUGGAUGUUUGGACCGGGCAGAGCUCGACACAGCGUGGCAAAGUGGCUGUGGCUAGACUGCCCCUCUGGAUUCCUCGUCACUCAGCAGGGCAUCUCUGAGAGGAAUGCC [A43U U52C A64G U100C A140G], for which the self-cleavage was found to be 0.81.

Take UACGUAGGUGGUUUUCCCCUGAUAGUGCUAAGGGGGCCUGGAUGUUUGGACUGGGCAGAGCUCAACGCAGCGUGGCAAAGUGGCUGUGGAUAGACUGCCUCUCUGGAUUCCUCGUCACUCAGCAGGGCAUCUCUGAGAGAAAUGCC [A43U A67G C90A]: the self-cleavage is 0.06.

Regarding UACGUAGGUGGUUUUCCCCUGAUAGUGCUAAGGGGGCCUGGAUGUUUGGACUGGGCAGAGCUCAACACAGCGUGGCAAAGUGGCUGUGGCUAGACUGCCUCACUGGAUUCCUCGUCGCUCAGCAGGGCAUCUCUGAGAGAAAUGCC [A43U U102A A117G], the self-cleavage came to 2.65.

In the case of UACGUAGGUGGUUUUCCCCUGAUAGUGCUAAGGGGGCCUGGAUGUUUGGACUGGGCAGAGCCCGACACAGCGUGGCAAAGUGGCUGUGGCUAGACUGCCUCUCCGGAUUCCUCGUCACUCAGCAGGGCAUCUCUGAGAGAAAUGCC [A43U U62C A64G U104C], the self-cleavage is 0.

UACGUAGGUGGUUUUCCCCUGAUAGUGCUAAGGGGGCCUGGAUGUUUGGACUGGGCAGGGCUCAACACAGCGUGGCAAAGUGGCUGUGGCUAGACUGCCUCCCUGGAUUCCUCGUCACUCAGCAGGGCAUCUCUGAGAGAAAUGCC [A43U A59G U102C]: the self-cleavage was found to be 0.09.

UACGUAGGUGGUUUUCCCCUGAUAGUGCUAAGGGGGCCUGGAUGUUUGGACUGGGCAGAGCUCAACACAGCGUGGCAAAGUGGCUGUGGCUAGACUGCCUCUCUGGAUUCCUCGUCACUCAGCAGGGCAUCUCUGAGAGAUGUGCC [A43U A141U A142G]: the self-cleavage was 1.26.

UACGUAGGUGGUUUUCCCCUGAUAGUGCUAAGGGGGCCUGGAAAUUUGGACUGGGCAGAGCACAACACAGCGAGGCAAAGUGGCUGUGGCUAGACUGCCUCUCUGGAUUCCUCGUCACUCAGCAGGGCAUCUCUGAGAGAAAUGCC [G44A U62A U73A]: the self-cleavage was determined as 0.03.

As for UACGUAGGUGGUUUUCCCCUGAUAGUGCUAAGGGGGCCUGGAUGUUUGGACUGGGCAGAGCUCGACACAGAGUGGCAAAGUGGCUGUGGCUAGACUGCCUCUCUGGAUUCCUCGUCGCUCAGCAGGGCAUCUCUGAGAGAAAUGCC [A43U A64G C71A A117G], the self-cleavage came out at 0.11.

Turning to UACGUAGGUGGUUUUCCCCUGAUAGUGCUAAGGGGGCCUGGAAAUUUGGACUGGGCAGAGCUCAACACAGCGUGGCAAAGUGGCUGUGGCUAGACUGCCUCUCUGGAUUCCUCGUCACUCAGCAGGGCUUCUCUGGGAGAAGUGCC [G44A A129U A136G A142G], the self-cleavage is 1.59.

With UACGUAGGUGGUUUUCCCCUGAUAGUGCUAAGGGGGCCUGGAUGUUUGGACUGGGCAGAGCUCAGCACAGCGUGGCAAAGUGGCUGUGGCUAGACUGCCUCUCUGGAUUCCUCGUCACUCAGCAGGGCAUCUCCGAGAGAAAUGCC [A43U A65G U134C], the self-cleavage worked out at 0.11.

Regarding UACGUAGGUGGUUUUCCCCUGAUAGUGCUAAGGGGGCCUGGAUGUUUGGACUGGGCAGAGCUCAACACAGCGUGGCGAAGUGGCUGUGGCUAGACUGCCUCUCUGGAUUCCUCACCACUCAGCAGGGCAUCUCUGAGAGAAAUGCC [A43U A77G G114A U115C], the self-cleavage stood at 2.07.

As for UACGUAGGUGGUUUUCCCCUGAUAGUGCUAAGGGGGCCUGGAUGUUUGGACUGGGCAGAGCUCAACACAGCGUGGCAAAGUGGCUGUGGCUAGACUGCCUCUCUGGAUUCCUCGUCGCUCAGCAGGGCAUCUCUGAGAGAAACGCC [A43U A117G U143C], the self-cleavage worked out at 0.92.

As for UACGUAGGUGGUUUUCCCCUGAUAGUGCUAAGGGGGCCUGGAUGGUUGGACUGGGCAGAGCUCAACACAGCGUAGCAAAGUGGCUGUGGCUAGACUGCCUCUCUGGAUUCCUCGUCACUCAGCAGGGCAUCUCUGAGAGAAAUGCC [A43U U45G G74A], the self-cleavage was determined as 0.97.

Turning to UACGUAGGUGGUUUUCCCCUGAUAGUGCUAAGGGGGCCUGGAUGUAUGGACUGGGCAGAGCUCAACACAGCAUGGCAAAGUGGCUGUGGCUAGACUGCCUCUCUGGAUUCCUCGUCACUCAGCAGGGCAUCUCUGAGAGAAAUGCC [A43U U46A G72A], the self-cleavage worked out at 1.46.

Take UACGUAGGUGGUUUUCCCCUGAUAGUGCUAAGGGGGCCUGGAGGUUUGGACUGGGCAGAGCUCAACACAGCGUGGCAAAGUGGCUGUGGCUAGACUGCCUCUCUGGAUUCCUCGUCACUCAGCAGGGCAUCCCUGAGAGAAGUGCC [A43G U132C A142G]: the self-cleavage was 1.05.

On to UACGUAGGUGGUUUUCCCCUGAUAGUGCUAAGGGGGCCUGGAUGUUUGGACUGGGCAGAGCUCAACACAGCGUGGCAAAGUGGCUGAGGCUAGGCUGCCUCUCUGGAUUCCUCGUCACUCAGCAGGGCAUCUCAGAGAGAAAUGCC [A43U U87A A94G U134A], for which the self-cleavage is 0.17.

Consider UACGUAGGUGGUUUUCCCCUGAUAGUGCUAAGGGGGCCUGGAUGUUUGGACUGGGCAGAGCUCAACACUGCGUGGCAAAGUGGCUGUGGCUAGACUGCCUCUCUGGAUUCCUCGUCGCUCAGCAGGGCAUCUCUGAGAGAAAUGCC [A43U A69U A117G], for which the self-cleavage turned out to be 0.

Values taken from the RNAGym collection of RNA variant scans (doi:10.7554/elife.90254).
